These results are taken from the supplement of paper PMC9174493.

This is one part of the list. Single values of this set are uncertain. Values with irradiation are relative to irradiated vehicle.
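Also: viability correction based on the alamar blue assay, with concentrations leaving 10% survival or less dropped.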

For this assay, the system named is A549-Dual. As to the kind of experiment: NF-kB reporter (SEAP) activity, viability-corrected, relative to vehicle (fold change vs vehicle); higher = more activation of STING-IRF / NF-kB immune response reporter. To be noted: 10 µM; irradiation: none.
On to `Nc1ncnc2c1ncn2C1OC(CO)C(O)C1O` (stereo not given) [Vidarabine], for which the NF-kB reporter amounted to 1.03.

`Cc1c(C)c2c(c(C)c1O)CCC(C)(CCCC(C)CCCC(C)CCCC(C)C)O2` (racemic) [(±)-α-Tocopherol] returned an NF-kB reporter of 0.459.

Molecule `CC(CNC(=O)c1cccnc1)NC(=O)c1cccnc1` (stereo not given) [Nicaraven] came in with an NF-kB reporter of 0.77.

On to `CCC1OC(=O)C(C)C(OC2CC(C)(OC)C(O)C(C)O2)C(C)C(OC2OC(C)CC(N(C)C)C2O)C(C)(O)CC(C)CNC(C)C(O)C1(C)O` (stereo not given) [Azathramycin], for which the NF-kB reporter was 0.92.

`COc1ccc(/C=C/C(=O)Nc2ccccc2C(=O)O)cc1OC` [Tranilast]: the NF-kB reporter is 1.25.

`CSCCNc1nc(SCCC(F)(F)F)nc2c1ncn2C1OC(COP(=O)([O][Na])OP(=O)([O][Na])C(Cl)(Cl)P(=O)([O][Na])[O][Na])C(O)C1O` (stereo not given) [Cangrelor Tetrasodium] gave an NF-kB reporter of 1.49.

`CC(=O)OC1(C(C)=O)CCC2C3C=C(Cl)C4=CC(=O)CCC4(C)C3CCC21C` (stereo not given) [Chlormadinone acetate] returned an NF-kB reporter of 0.838.

Consider `CCCN(CCC)CCc1cccc2c1CC(=O)N2.Cl` [Ropinirole HCl], for which the NF-kB reporter stood at 0.71.

As to `CN(C)CCCN1c2ccccc2Sc2ccccc21.Cl` [Promazine hydrochloride], the NF-kB reporter was determined as 1.01.

`CCCCc1oc2ccccc2c1C(=O)c1cc(I)c(OCCN(CC)CC)c(I)c1.Cl` [Amiodarone HCl] displayed an NF-kB reporter of 1.03.

On to `Cc1c(C(=O)NN2CCCCC2)nn(-c2ccc(Cl)cc2Cl)c1-c1ccc(Cl)cc1` [Rimonabant], for which the NF-kB reporter was 0.652.

`CCCCCCCCCCCCCCCC(=O)OC/C=C(C)/C=C/C=C(C)/C=C/C1=C(C)CCCC1(C)C` [Retinyl (Vitamin A) Palmitate]: the NF-kB reporter stood at 0.559.

`C[N+]1(C)CCC(OC(=O)C(O)(c2ccccc2)C2CCCC2)C1.[Br-]` (stereo not given) [Glycopyrrolate] gave an NF-kB reporter of 0.631.

`Cc1ncc(C[n+]2csc(CCO)c2C)c(N)n1.Cl.[Cl-]` [Thiamine HCl (Vitamin B1)] came in with an NF-kB reporter of 0.851.

Take `NCCCCCC(=O)O` [(6-)ε-Aminocaproic acid]: the NF-kB reporter amounted to 1.17.

`CC(C)Nc1cccnc1N1CCN(C(=O)c2cc3cc(NS(C)(=O)=O)ccc3[nH]2)CC1.CS(=O)(=O)O` [Delavirdine (mesylate)] showed an NF-kB reporter of 0.731.

`CC(C)c1c(C(=O)Nc2ccccc2)c(-c2ccccc2)c(-c2ccc(F)cc2)n1CCC(O)CC(O)CC(=O)[O-].CC(C)c1c(C(=O)Nc2ccccc2)c(-c2ccccc2)c(-c2ccc(F)cc2)n1CCC(O)CC(O)CC(=O)[O-].[Ca+2]` (stereo not given) [Atorvastatin Calcium] yielded an NF-kB reporter of 1.25.

As to `O=C(O)Cc1cc(I)c(Oc2ccc(O)c(I)c2)c(I)c1` [Tiratricol], the NF-kB reporter was 1.12.

`CN1CCCN=C1/C=C/c1cccs1.O=C(O)c1cc2ccccc2c(Cc2c(O)c(C(=O)O)cc3ccccc23)c1O` [Pyrantel Pamoate] returned an NF-kB reporter of 1.38.

`CC1OC(OCC2OC(Oc3c(-c4ccc(O)c(O)c4)oc4cc(O)cc(O)c4c3=O)C(O)C(O)C2O)C(O)C(O)C1O` (stereo not given) [Rutin hydrate] showed an NF-kB reporter of 0.692.

`C[C@H](O)C(=O)O` [L-Lactic acid] had an NF-kB reporter of 0.824.

`CN(CCO)CC(O)Cn1cnc2c1c(=O)n(C)c(=O)n2C.O=C(O)c1cccnc1` (stereo not given) [Xanthinol Nicotinate] returned an NF-kB reporter of 1.23.

On to `COc1cc(O)c2c(c1)oc(=O)c1c3cc(O)c(O)cc3oc21` [Wedelolactone], for which the NF-kB reporter amounted to 0.887.

Molecule `CN1CCN(CCCN2c3ccccc3Sc3ccc(C(F)(F)F)cc32)CC1.Cl.Cl` [Trifluoperazine 2HCl] registered an NF-kB reporter of 1.07.

In turn, `O=C(/C=C/c1ccccc1)OCc1ccccc1` [Benzyl cinnamate] returned an NF-kB reporter of 0.675.

Take `CC(O)Cn1cnc2c1c(=O)n(C)c(=O)n2C` (stereo not given) [Proxyphylline]: the NF-kB reporter was 0.993.

In turn, `CC(C)NCC(O)COc1ccc(CCOCC2CC2)cc1.Cl` (stereo not given) [Betaxolol HCl] registered an NF-kB reporter of 0.672.

`CC(C)(C(=O)O)c1ccc(C(O)CCCN2CCC(C(O)(c3ccccc3)c3ccccc3)CC2)cc1.Cl` (stereo not given) [Fexofenadine HCl] displayed an NF-kB reporter of 0.582.

The molecule `C/C=C/c1ccc(O)c(OC)c1` [Isoeugenol] gave an NF-kB reporter of 0.439.

On to `CN1CC(=O)NC1=N` [Creatinine], for which the NF-kB reporter worked out at 0.694.

Turning to `Nc1ccc(S(=O)(=O)Nc2nccs2)cc1` [Sulfathiazole], the NF-kB reporter turned out to be 0.95.

On to `CCCSc1nc(NC2CC2c2ccc(F)c(F)c2)c2nnn(C3CC(OCCO)C(O)C3O)c2n1` (stereo not given) [Ticagrelor], for which the NF-kB reporter was determined as 0.808.

As for `CC(=O)NS(=O)(=O)c1ccc(NC(=O)c2ccccc2C(=O)O)cc1` [Phthalylsulfacetamide], the NF-kB reporter came to 0.785.

As for `OCC1OC(O)C(O)C(O)C1O` [D-Mannose], the NF-kB reporter was determined as 1.19.

As for `CC(C)(CO)C(O)C(=O)NCCC(=O)NCCSSCCNC(=O)CCNC(=O)C(O)C(C)(C)CO` [D-Pantethine], the NF-kB reporter is 0.619.

For the molecule `CC1OC(OC2C(Oc3cc(O)c(C(=O)CCc4ccc(O)cc4)c(O)c3)OC(CO)C(O)C2O)C(O)C(O)C1O` (stereo not given) [Naringin Dihydrochalcone], the NF-kB reporter came to 0.567.

Molecule `CC(=O)OCC(=O)C1(O)CCC2C3CCC4=CC(=O)CCC4(C)C3C(O)CC21C` (stereo not given) [Hydrocortisone acetate] came in with an NF-kB reporter of 0.757.

The molecule `NCC1CCC(C(=O)O)CC1` (stereo not given) [Tranexamic Acid] returned an NF-kB reporter of 1.47.

`CCN(CC)CC(=O)Nc1c(C)cccc1C` [Lidocaine] came in with an NF-kB reporter of 0.915.

For `CC(C)(Sc1cc(C(C)(C)C)c(O)c(C(C)(C)C)c1)Sc1cc(C(C)(C)C)c(O)c(C(C)(C)C)c1` [Probucol], the NF-kB reporter is 0.963.
